The campaign covered roughly 290,000 compounds. About 2,100 (0.72%) were called active. Inconclusive results, whose numbers are uncertain, are shown with a selection of clear calls. The call rests on the fitted dose curve; in most records, active means well fitted inhibition curve with a large enough effect; inconclusive means small, poorly fitted or top-dose-only effect, or effect the other way; inactive means flat fitted curve, though single readings scatter. Potencies of inconclusive entries are doubtful fits and often do not repeat.
molecular target: Fructose-bisphosphate aldolase (Giardia intestinalis (strain ATCC 50803 / WB clone C6)) (UniProt A8B2U2); test: qHTS Assay for Inhibitors of Fructose-1,6-bisphosphate Aldolase from Giardia Lamblia; conditions: purified Giardia FBPA; activity, negative = inhibition: at 59.6 µM (top of the series) unless noted; further: nearly all actives have a fitted effect of over 55% in size
How it was run: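 Giardia FBPA (40 nM reagent) was preincubated 10 min at RT with compound (up to 57.5 uM final), then substrate plus GAPDH/TPI/NAD/arsenate coupling system with diaphorase/resazurin was added; resorufin fluorescence (525/598 nm) was read after 20 min.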
On the % scale 0 is the no-effect control and ±100 the full control effect; potency means the concentration at half of the fitted maximal effect; tags describe the fitted curve by direction and shape.

Sequence of UniProt A8B2U2 (A8B2U2 whole entry, looked up): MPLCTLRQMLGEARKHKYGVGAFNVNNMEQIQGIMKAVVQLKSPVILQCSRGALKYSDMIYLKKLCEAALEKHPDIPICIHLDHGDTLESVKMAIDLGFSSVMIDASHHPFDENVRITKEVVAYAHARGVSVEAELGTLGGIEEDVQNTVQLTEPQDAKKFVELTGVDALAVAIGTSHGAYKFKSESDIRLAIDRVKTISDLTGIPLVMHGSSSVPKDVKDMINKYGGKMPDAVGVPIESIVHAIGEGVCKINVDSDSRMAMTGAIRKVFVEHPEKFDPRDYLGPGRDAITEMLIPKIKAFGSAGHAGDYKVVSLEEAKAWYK

Row | Compound | Potency | activity, negative = inhibition
1 | CSc1nc(=S)n(-c2ccccc2)c(C)c1C(C)=O | inconclusive: 28.2 µM [inhibitor, partial curve] | 
2 | COc1cc(C)c(Cc2cnc(N)nc2N)cc1OC |  | inactive: 4.23%
3 | CCN(c1ccccc1)S(=O)(=O)c1nnc(NC(=O)c2ccccc2OC)s1 | inconclusive: 20 µM [inhibitor, single point] | 
4 | CCN1C(=O)CC(N2CCN(c3ccc(Cl)cc3)CC2)C1=O (configuration not stated) |  | inactive: -1.61%
5 | Cc1ccccc1-c1nc(CN2CCC(C(=O)NCCCN3CC(C)CC(C)C3)CC2)c(C)o1 (configuration not stated) |  | inactive: 7.18%
6 | COc1cc(C(C2C(=O)CC(C)(C)CC2=O)C2C(=O)CC(C)(C)CC2=O)cc(OC)c1OC |  | inactive: -11.8%
7 | O=C(NCc1ccccc1)c1cccc(COc2ccc3c(c2)CCC3)c1 |  | inactive: 1.23%
8 | O=C(Nc1sc2c(c1C(=O)O)CCC2)c1cccs1 | inconclusive: 31.5 µM [inhibitor, single point] | 
9 | COc1ccc(-c2cc(=O)oc3cc(OC(C)C(=O)NCCCn4ccnc4)ccc23)cc1 (configuration not stated) |  | inactive: -4.54%
10 | COc1cccc(N2CCN(C3CC(=O)N(c4ccc(C)c(Cl)c4)C3=O)CC2)c1 (configuration not stated) |  | inactive: -1.52%
11 | CCCCCCN1CCN(c2ccc(Cl)cc2)CC1 | inconclusive: 17.7 µM [inhibitor, partial curve] | 
12 | C/C(=N\Nc1nc2ccc(Cl)cc2o1)c1ccccc1 | inconclusive: 15.8 µM [inhibitor, single point] | 
13 | Cc1nnc(SCC(=O)c2cc(C)n(C3CC3)c2C)s1 | inconclusive: 15.8 µM [inhibitor, single point] | 
14 | CCCCCc1cc(=O)oc2c(C(CCN3CCCCC3)c3ccc(OC)cc3)c(OC)cc(OC)c12 (configuration not stated) | inactive | 
15 | CCN(CC)C(=O)c1[nH]cnc1C(=O)N[C@@H](Cc1ccccc1)C(=O)OC(C)(C)C | inconclusive: 22.4 µM [inhibitor, partial curve] | 
16 | CC1CCC2C(=O)N(c3ccc(C(=O)Oc4cccc5cccnc45)cc3)C(=O)C2C1 (configuration not stated) | inconclusive: 17.7 µM [inhibitor, single point] | 
17 | COc1ccc(-n2c(SCC(=O)NCc3ccco3)nc3sc4c(c3c2=O)CCN(C)C4)cc1 | inconclusive: 31.6 µM [inhibitor, single point] | 
18 | C=CCOC(=O)c1cc(-c2ccc(/C=C3\C(=O)NC(=O)C(C#N)=C3C)o2)ccc1Cl | inconclusive: 14.1 µM [inhibitor, partial curve] | 
19 | COc1ccccc1-c1ccc(/C=C2/C=C(C)OC2=O)o1 | inconclusive: 17.7 µM [inhibitor, partial curve] | 
20 | Nc1nnc(-c2cc3c(ccc4ccccc43)oc2=O)s1 |  | inactive: -3.09%
21 | O=C(Nc1nc(-c2cccnc2)cs1)c1ccccc1Cl |  | inactive: 1.01%
22 | CNCCOc1ccccc1OC(C)C | inconclusive: 22.3 µM [inhibitor, partial curve] | 
23 | c1ccc(Cn2ncc3c(N4CCN(C(c5ccccc5)c5ccccc5)CC4)ncnc32)cc1 |  | inactive: -3.91%
24 | CC(C)(C)N1CC(C(=O)Nc2ccc(C#N)cc2)CC1=O (configuration not stated) |  | inactive: 3.23%
25 | CC(=O)NNC(=S)NC(=O)c1ccccc1 | inconclusive: 17.7 µM [inhibitor, partial curve] | 
26 | Cc1nn2c(NCCOCCO)c3c(nc2c1-c1ccccc1)CCCC3 |  | inactive: 0.492%

Row | Compound | Potency | activity, negative = inhibition
27 | CC1=NOC(=O)/C1=C\c1ccc(-c2ccc(Br)cc2C(=O)O)o1 | active: 5 µM | 
28 | COCCn1nnnc1C(c1ccc(O)c(OC)c1)N1CCc2ccccc2C1 (configuration not stated) | inconclusive: 15.8 µM [inhibitor, single point] | 
29 | CCC(=O)NC(c1ccc(OC)cc1)c1cc(Cl)c2cccnc2c1O (configuration not stated) |  | inactive: 5.23%
30 | Oc1ccc(/C(Cc2ccc3ccccc3n2)=N\Nc2ccccc2)c(O)c1 | inconclusive: 15.8 µM [inhibitor, single point] | 
31 | Cc1ccc(CNC2CCCCC2)s1 | inconclusive: 25.1 µM [inhibitor, single point] | 
32 | CC1CCN(CCc2nc3cc(NC(=O)Nc4ccccc4)ccc3n2C)CC1 |  | inactive: 1.62%
33 | Cc1cc(C)c2nc(C)cc(N/N=C/c3ccc(O)cc3)c2c1 |  | inactive: 13.9%
34 | COC(=O)C(C)Sc1n[nH]c(=S)s1 (configuration not stated) | inconclusive: 15.8 µM [inhibitor, partial curve] | 
35 | Oc1ccc(/C=N/Nc2ccnc3cc(Cl)ccc23)c(O)c1O | active: 14.1 µM | 
36 | COc1cc(O)c(C(=O)c2ccccc2)cc1O | active: 3.54 µM | 
37 | O=C(CN1C(=O)CCC1=O)Nc1nc(-c2ccccn2)cs1 | inconclusive: 44.6 µM [inhibitor, single point] | 
38 | Cc1noc(C)c1C(=O)N1CCC2(CCCN(C(c3ccccc3)c3ccccc3)C2)CC1 |  | inactive: 3.69%
39 | O=[N+]([O-])c1ccc2c(c1)N([O-])C1(CCCCC1)[N+]2=O | active: 7.92 µM | 
40 | O=C(Nc1cccnc1)c1ccc2c(c1)C(=O)N(Cc1cccnc1)C2=O |  | inactive: 3.1%
41 | CCOc1ccc(Cn2ccnc2CCl)cc1[N+](=O)[O-] |  | inactive: -11%
42 | CCOC(=O)c1c(-c2ccc(Cl)cc2)csc1NC(=O)CNCc1ccco1 | active: 15.8 µM | 
43 | COc1cccc(CN2CCN(C(=O)c3ccc(-c4ccccc4)cc3)CC2)c1OC | inconclusive: 22.3 µM [inhibitor, partial curve] | 
44 | CNCCC1Sc2ccccc2Oc2ccccc21 (configuration not stated) | active: 17.7 µM | 
45 | CCN(CC)S(=O)(=O)c1cccc(NC(=O)COC(=O)C2CC3C=CC2C3)c1 (configuration not stated) |  | inactive: -5.11%
46 | COc1cccc(C(=O)NCC(=O)NNc2ncnc(N)c2[N+](=O)[O-])c1 | inconclusive: 19.9 µM [inhibitor, partial curve] | 
47 | CCCOc1ccc(C2C(C(=O)/C=C/c3ccco3)=C(O)C(=O)N2CCN2CCOCC2)cc1OC (configuration not stated) | active: 7.92 µM | 
48 | C[C@H](NC(=O)[C@H]1N2C(=O)c3ccccc3C2SC1(C)C)C(=O)N1CCC[C@H]1C(=O)O (some centres not stated) | inconclusive: 28.2 µM [inhibitor, partial curve] | 
49 | CC1CCc2c(sc(N)c2C(N)=O)C1 (configuration not stated) | inconclusive: 15.8 µM [inhibitor, single point] | 
50 | N#Cc1cccc2c1-c1ccccc1/C2=N/NC(N)=S | inconclusive: 2.51 µM [inhibitor, partial curve] | 
51 | CCOc1cc(CN2CCN(C(=O)CC(C)C)CC2)ccc1OC | inconclusive: 31.5 µM [inhibitor, single point] | 
52 | O=[N+]([O-])c1cc(-c2ncccn2)c([N+](=O)[O-])s1 | active: 15.8 µM | 

Row | Compound | Potency | activity, negative = inhibition
53 | Clc1ccccc1CN1CCSCC1 | inconclusive: 28.2 µM [inhibitor, partial curve] | 
54 | O=C(OCc1nnc(-c2ccccc2)o1)c1ccco1 |  | inactive: -1.35%
55 | Cc1cccc(NCc2ccccc2O)n1 |  | inactive: 5.09%
56 | COc1ccc(CCCc2nnc(SCC(=O)Nc3cc(C)c(C)cc3Br)o2)cc1 | inconclusive: 39.8 µM [activator, single point] | 
57 | Cc1ccc2nsnc2c1S(=O)(=O)Nc1cccc2nsnc12 | inconclusive: 1.78 µM [inhibitor, full curve] | 
58 | COc1ccc(N=Nc2n(C)c3ccccc3[n+]2C)cc1 | inconclusive: 19.9 µM [inhibitor, partial curve] | 
59 | CN(C)c1ccc(/C=N/NC2=NS(=O)(=O)c3ccccc32)cc1 | inconclusive: 15.8 µM [inhibitor, partial curve] | 
60 | O=C(Cc1ccccc1)N1CCN(Cc2ccc(F)cc2)CC1 | active: 28.2 µM | 
61 | Cc1nc2ccccc2n1CC(O)COCC1CC=CCC1 (configuration not stated) |  | inactive: -5.57%
62 | COc1ccc(/C=N/Nc2nc(=O)[nH]nc2C)cc1OC | inconclusive: 8.89 µM [inhibitor, partial curve] | 
63 | Cc1cc(OCC(O)CN2CCOCC2)cc(C)c1Cl (configuration not stated) | inconclusive: 17.8 µM [inhibitor, partial curve] | 
64 | CCc1ccc(CN2CCN(C(=O)Cc3ccccc3)CC2)cc1 | inconclusive: 19.9 µM [inhibitor, partial curve] | 
65 | CC1OC2(C)OC(=N)C1(C#N)C(C#N)(C#N)C2c1ccccc1 (configuration not stated) | inconclusive: 15.8 µM [inhibitor, partial curve] | 
66 | Oc1cc(O)c2c(c1)OC(c1ccc(O)c(O)c1)C(O)C2 (configuration not stated) | active: 9.98 µM | 
67 | Cc1ccc(N2C(=O)c3ccccc3C2C(=O)c2ccc(C)c(C)c2O)cc1 (configuration not stated) |  | inactive: -23.1%
68 | CCOc1cc(NC(=S)NCC2CCCO2)c(OCC)cc1NC(=O)c1ccc(OC)cc1 (configuration not stated) | inconclusive: 5 µM [inhibitor, partial curve] | 
69 | CCCc1n[nH]c(=S)n1Cc1ccco1 | inconclusive: 17.7 µM [inhibitor, single point] | 
70 | CCN(CC)c1ccc(S(=O)(=O)N2CCOCC2)cc1NC(=O)CNCc1ccccc1 | inconclusive: 7.92 µM [inhibitor, partial curve] | 
71 | COc1cc([C@@H]2[C@H]3CNCC=C3C(C#N)=C(N)C2(C#N)C#N)ccc1OC(C)C | inconclusive: 15.8 µM [inhibitor, partial curve] | 
72 | Cc1cc(=O)n2[nH]cc(-c3ccccc3)c2n1 | inconclusive: 14.1 µM [inhibitor, partial curve] | 
73 | COc1ccc(C2NC3=C(CCC3)C3(C#N)C(OC)(OC)N=C(N)C23C#N)cc1 (configuration not stated) | inconclusive: 19.9 µM [inhibitor, partial curve] | 
74 | O=P(O)(O)CCP(=O)(c1ccccc1)c1ccccc1 |  | inactive: 3.37%
75 | CN1CCN(C(=S)NC(=O)c2ccc(-c3ccccc3)cc2)CC1 | active: 17.7 µM | 
76 | CCn1c(SCC(=O)Nc2ccccc2OC)nnc1-c1cnccn1 | inconclusive: 17.7 µM [inhibitor, partial curve] | 
77 | CC(NCc1cc(Br)ccc1OCC(N)=O)C12CC3CC(CC(C3)C1)C2 (configuration not stated) | inconclusive: 35.5 µM [inhibitor, single point] | 

From PubChem BioAssay AID2451 (National Center for Advancing Translational Sciences (NCATS), 2010)
